Screen size: about 150,000 compounds; about 540 (0.36%) showed an effect of 50% or more. This is one part of the list.
The molecules below were run on Plasmodium falciparum (assay: Primary screen in NF54 nanoGlo assay, in single point, at 2uM, 72h; a lower Z score goes with more inhibition). Conditions: timepoint 72 hour.
Type: functional, Erythrocyte

Row | Compound | % Inhibition [%] | Z score
1 | Cc1cc(O)c2cccc(-c3cccc4c3CCNC4)c2n1 | -5 | 0.79
2 | COC(=O)c1ncccc1N1CCC[C@H](c2nccs2)C1 | -1 | 0.07
3 | Cc1cc(-c2nc(-c3ccc(F)cc3)no2)c(C)n1CC(=O)Nc1ccc(F)cc1 | -8 | 1.57
4 | Cn1nc(C(F)(F)F)cc1NC(=O)[C@@H]1CCC(=O)c2cccn21 | -15 | 1.8
5 | Cc1ccc(-n2nc(C(=O)Nc3cc(F)ccc3F)c3ccccc32)cc1 | -7 | 1.07
6 | O=C(CN(CC1CC1)C(=O)c1cccs1)Nc1nc(-c2ccccc2)cn1-c1ccc(F)c(Cl)c1 | -15 | 1.49
7 | O=C(Nc1ccc(F)c(C2CC2)c1)N1CCC[C@@H]1CO | -8 | 1.09
8 | CC(=O)c1ccc(Br)cc1N | -15 | 1.48
9 | CC(C)c1nc(N2CCN(Cc3ccc(S(C)(=O)=O)cc3)CC2)no1 | 5 | -0.67
10 | CC(C)c1nccc(N2CCC23CCOCC3)n1 | 11 | -1.42
11 | Cc1cc(CNC(=O)c2cnc(Cn3cncn3)nc2O)c(C(F)(F)F)o1 | -10 | 1.32
12 | CC[C@H](C)NC(=O)c1coc(CN2CCN(Cc3ccc(N(C)C)cc3)CC2)n1 | -4 | 0.69
13 | COc1cccc(-c2nc3ccccc3n2C)c1OCCn1ccnc1 | -2 | 0.38
14 | CN(CC(F)(F)F)C(=O)Nc1cc(F)ccc1F | 1 | -0.08
15 | CC(=O)N1CCN(C2CN(C(C)c3cccc(F)c3)CC2C)CC1 (stereo not drawn) | 5 | -0.7
16 | CC1(C)COCCN1CC(=O)Nc1ccccc1Cc1ccccc1 | -14 | 1.88
17 | CCCCN(C(=O)Cc1n[nH]c(=O)[nH]1)C1CCCC1 | -14 | 1.32
18 | CC1(C)CN(c2ccc3nnc(C(F)(F)F)n3n2)CCS1(=O)=O | -6 | 0.81
19 | O=C1CC[C@@]2(CCCN(C(=O)c3ccc(=O)[nH]c3)C2)CN1CCc1ccccn1 | -10 | 1.47
20 | CCC1(C)CC(=O)N(Cc2ccc(Cl)cc2)C(=O)C1 | 4 | -0.61
21 | Cc1noc(C(=O)N2CCC(c3ccccc3)(N3CCCC3)CC2)n1 | 9 | -1.08

Row | Compound | % Inhibition [%] | Z score
22 | N#CC1(COC(=O)c2cc(F)cc(F)c2)CCOCC1 | 5 | -0.81
23 | CCNc1ncc(C(=O)N2C[C@@H]3CC[C@H]2CN(Cc2[nH]cnc2C)C3)cn1 | -4 | 0.57
24 | Cn1cccc1-c1noc(CNC(=O)c2ccc[n+]([O-])c2)n1 | -8 | 1.46
25 | CCc1ccccc1CC(=O)NC[C@H](O)C1CC1 | 4 | -0.53
26 | Cc1cccc(C(=O)N2CCc3onc(-c4cccc5ccccc45)c3C2)c1O | 2 | -0.18
27 | Cc1ccc(CCN(CC2CCCO2)C(=O)[C@@H]2CCCN2C(N)=O)cc1 (stereo partly drawn) | -6 | 0.64
28 | Cc1nc(CC(=O)N2CCN(c3nc[nH]n3)CC2)c(C)s1 | -2 | 0.31
29 | CC1(C)Cc2ccccc2-c2nc(-c3ccccc3)n(CCO)c(=O)c21 | -18 | 3.46
30 | O=C(c1ccsc1)N1CCN(CC(=O)N2CCc3sccc3[C@H]2c2ccccc2)CC1 | 7 | -1.5
31 | O=C(CCC(F)(F)F)N1CCC(N2CCCCCC2)CC1 | -10 | 1.36
32 | CCCOC(=O)N1CCC[C@H](c2ncc(Br)cn2)C1 | -24 | 2.56
33 | CO[C@H]1C[C@H](C(=O)Nc2ncc(Cc3ccccc3)s2)N(C(=O)OC(C)(C)C)C1 | 4 | -0.51
34 | CC(=O)N(CCN1CCCCC1)[C@H]1CCCN(S(=O)(=O)c2cc(F)ccc2C)C1 | -5 | 0.62
35 | Cc1nc(CC(=O)N2CC(=O)Nc3cccnc32)cs1 | -5 | 0.67
36 | O=C(O)[C@@H]1CN(C(=O)Cn2ccc(C(F)(F)F)n2)C[C@@H]1c1ccccc1 | 3 | -0.38
37 | CC1CN2C(=O)CN(C(=O)Nc3cc(F)cc4c3OCOC4)CC2c2ccccc21 (stereo not drawn) | -10 | 1.72
38 | Cc1sc(NC(=O)C2(F)C(F)(F)C(F)(F)C(F)(F)C(F)(F)C2(F)F)nc1-c1ccccc1 | -7 | 0.76
39 | CC[C@H](NCCS(=O)(=O)NC)C(=O)NC1CCCCC1 | -6 | 0.79
40 | CCn1cc(-c2cc(C(F)(F)F)n(CCC#N)n2)cn1 | -29 | 3.41
41 | COCCN(C)c1ccc(CNCC2(c3ccc(F)cc3)CC2)cn1 | -3 | 0.38
42 | CC(=O)N[C@H](c1nc(CC(N)=O)nn1-c1cccnc1)C(C)C | 9 | -1.09

Row | Compound | % Inhibition [%] | Z score
43 | CC(C)c1cc(NC(=O)N(C)Cc2cscn2)no1 | -11 | 1.11
44 | CN(C)S(=O)(=O)N1C[C@@H]2OC(=O)N(CCc3ccc(F)cc3)[C@@H]2C1 | 3 | -0.51
45 | O=C(c1ccco1)N1CCN(C(=O)[C@@H]2CCCO2)CC1 | -7 | 1.29
46 | O=C1C[C@H](CN2CCOc3ccc(CO)cc3C2)CN1c1ccccc1 | -9 | 1.66
47 | Cc1cn2nc(C(=O)NCc3cccnc3)cc2c(=O)[nH]1 | -17 | 2.21
48 | Cc1noc(C)c1CNc1ccccc1C(=O)NC1CC1 | -4 | 0.6
49 | CCN1CCC(CC(=O)N[C@H](c2cccnc2)C(F)(F)F)CC1 | -3 | 0.56
50 | CNC(=O)c1nnsc1Nc1ccccc1C | -46 | 5.35
51 | CCC(=O)Nc1ccccc1-c1nc2ccccc2n(CC(=O)Nc2cccc(C)c2C)c1=O | -3 | 0.51
52 | O=C(COc1ccc(Br)cc1F)N[C@@H](C(=O)O)c1ccc(F)c(F)c1 | -17 | 2.1
53 | O=C(NCC1CCN(c2ccccn2)CC1)c1ccccn1 | -14 | 2.18
54 | Cc1cccc(C(=O)N2CCc3cc(CNC(=O)c4n[nH]c5c4CCc4ccccc4-5)ccc32)c1 | 0 | -0.05
55 | COc1cc2c(cc1OC)CN(C1CCN(c3ccncn3)CC1)CC2 | -1 | 0.08
56 | CC(C)CCc1nc(N2CCN(C(=O)c3ccco3)CC2)c2cnn(-c3cccc(Cl)c3)c2n1 | -16 | 1.61
57 | COc1ccc(CC(=O)N2CCc3[nH]c4ccc(F)cc4c3C2)cc1 | 6 | -0.8
58 | Cc1ccc2c(Nc3cccc(C#N)c3)c(C(=O)N3CCOCC3)cnc2n1 | -11 | 1.77
59 | COc1cccc(-c2ccc(N3CCCN(C(=O)CN(Cc4ccc(F)cc4)C(=O)c4ccccc4)CC3)nn2)c1 | -16 | 1.66
60 | O=C(c1nc2ncccn2n1)N1CCCCC[C@H]1C(F)(F)F | 3 | -0.6
61 | COc1ccccc1Nc1nc(N)nc(COC(=O)[C@@H]2CCCO2)n1 | -8 | 0.92
62 | CC[C@H](C)N(Cc1cccc(OS(=O)(=O)c2c(C)cccc2Cl)c1)C(=O)c1ccccc1Cl | -11 | 1.59
63 | Cn1cc(CCc2nc(CC(N)=O)nn2-c2ccccc2)cn1 | -6 | 0.67

Row | Compound | % Inhibition [%] | Z score
64 | CC(C)(C)S(=O)(=O)c1cnc2c(-c3ccsc3)cnn2c1N | -6 | 1.16
65 | CN(CCN1CCOCC1)c1nccc(-c2cnn(C)c2)n1 | -9 | 1.24
66 | Cc1nc(C(=O)NCCc2nc3ccccc3[nH]2)c(-c2ccccc2)s1 | -8 | 1
67 | CCOc1cccnc1N1CCN(S(=O)(=O)c2ccoc2)CC1 | 12 | -1.52
68 | CN(Cc1cccnc1)C(=O)c1cc2c(s1)CCCCC2 | -13 | 1.12
69 | Cc1c(C(=O)Nc2nc(-c3ccc4c(c3)OCO4)cs2)oc2c1C(=O)CC(C)(C)C2 | 8 | -1.4
70 | O=C(Nc1ncccc1F)N1CCC[C@H]1c1ccncc1 | 32 | -3.57
71 | N#C[C@@H]1COCCN1S(=O)(=O)CCc1ccccc1 | -2 | 0.44
72 | CC1CC(NC(=O)c2nccn2C)C(=O)N1c1ccccc1 (stereo not drawn) | -10 | 1.27
73 | CC(C)[C@H]1C=CCN1Cc1cnc(N(C)CC(=O)O)nc1 | 0 | -0.01
74 | O=C(NCc1ccccc1)c1cccc(C(=O)NCc2ccccc2)n1 | -16 | 2.87
75 | COc1ccc(-c2noc(C3CCN(c4ccc(C)cn4)CC3)n2)cc1OC | -4 | 0.58
76 | Cc1cnc(C2CC2)n1[C@H]1CCCN(C(=O)CCc2ccccc2)C1 | -10 | 1.25
77 | O=C(c1ccc(F)cc1)N1CCC[C@H]1c1nc2ccccc2s1 | 8 | -0.99
78 | CCC[C@@]1(C)CCCN(c2ncccc2-c2nc(C)no2)C1 | -17 | 1.56
79 | O=C(COc1ccccc1)Nc1ccc2c(c1)C(=O)N1CCC[C@H]1C(O)=N2 | -9 | 1.39
80 | CO[C@@]12CC[C@@H](NC(C)=O)C[C@@H]1N(C(=O)CCCCc1ccccc1)CC2 | -18 | 1.93
81 | CC(C)[C@H](CCO)NS(=O)(=O)c1cc(F)ccc1F | -17 | 1.98
82 | COc1ccccc1-c1noc([C@@H](c2cccc(Br)c2)N2CCCC2)n1 | -8 | 0.73
83 | CC(C)(C)[C@@]1(O)NS(=O)(=O)c2cccc(Cl)c21 | -23 | 2.76
84 | CCOc1ccccc1-c1cc(C(=O)NCc2ccncc2)c2ccccc2n1 | -12 | 1.74
